# Experimental data from publication PMC4336329 (PLoS ONE, 2015).
# The campaign covered roughly 310,000 compounds. About 2,200 (0.71%) showed an effect of 50% or more. Effects have a minus sign here. The list shows a part of the results.
# Target: human ether-à-go-go-related gene (hERG) potassium channel (human, UniProt Q12809)
# Test: primary screen, population patch clamp on CHO cells stably expressing hERG
# Chain of human ether-à-go-go-related gene (hERG) potassium channel (Q12809 whole entry, looked up): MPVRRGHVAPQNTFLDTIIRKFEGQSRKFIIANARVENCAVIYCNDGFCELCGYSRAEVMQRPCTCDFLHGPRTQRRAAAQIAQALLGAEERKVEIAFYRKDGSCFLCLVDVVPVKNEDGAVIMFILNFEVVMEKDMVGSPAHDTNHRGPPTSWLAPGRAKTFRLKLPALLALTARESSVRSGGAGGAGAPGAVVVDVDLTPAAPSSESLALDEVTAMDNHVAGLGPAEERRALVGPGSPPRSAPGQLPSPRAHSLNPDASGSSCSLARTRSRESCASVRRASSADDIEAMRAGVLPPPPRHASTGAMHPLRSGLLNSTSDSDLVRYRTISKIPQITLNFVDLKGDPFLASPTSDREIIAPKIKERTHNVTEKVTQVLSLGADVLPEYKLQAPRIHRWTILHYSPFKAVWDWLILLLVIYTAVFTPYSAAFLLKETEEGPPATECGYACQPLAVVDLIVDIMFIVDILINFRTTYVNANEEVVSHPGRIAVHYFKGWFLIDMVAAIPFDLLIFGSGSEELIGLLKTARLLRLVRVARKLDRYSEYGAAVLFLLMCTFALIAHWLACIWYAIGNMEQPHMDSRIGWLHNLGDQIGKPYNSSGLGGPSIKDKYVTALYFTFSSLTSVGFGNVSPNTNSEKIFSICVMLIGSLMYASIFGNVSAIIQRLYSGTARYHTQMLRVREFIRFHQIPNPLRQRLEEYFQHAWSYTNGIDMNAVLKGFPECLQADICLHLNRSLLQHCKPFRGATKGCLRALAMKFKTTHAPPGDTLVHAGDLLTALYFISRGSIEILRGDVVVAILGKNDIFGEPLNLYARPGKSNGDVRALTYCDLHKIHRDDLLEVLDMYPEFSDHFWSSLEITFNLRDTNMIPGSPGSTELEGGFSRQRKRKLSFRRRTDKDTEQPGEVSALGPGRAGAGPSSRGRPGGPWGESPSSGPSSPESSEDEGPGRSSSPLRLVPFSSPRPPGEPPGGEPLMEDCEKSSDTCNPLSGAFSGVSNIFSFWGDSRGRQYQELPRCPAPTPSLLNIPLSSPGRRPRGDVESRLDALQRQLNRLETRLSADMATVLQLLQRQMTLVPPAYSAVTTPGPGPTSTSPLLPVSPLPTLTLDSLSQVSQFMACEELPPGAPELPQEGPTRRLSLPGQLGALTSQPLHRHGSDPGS
row,SMILES,"hERG current change (%, negative = inhibition) at 1uM"
1,Cc1cc(C)c2cc(C)c3nnc(SCC(=O)NCc4ccc5c(c4)OCO5)n3c2c1,13.1%
2,CCC(Sc1nc2cc(OC)c(OC)cc2c(=O)n1CCc1ccc(OC)c(OC)c1)C(=O)NCCOC (stereo not drawn),11.7%
3,CC1(c2nnc(-c3ccc(Cl)cc3)o2)CC(c2cccc(Cl)c2)=NO1 (stereo not drawn),15.3%
4,Cc1cc(C)c(C(=O)OCCNC(=O)c2cccnc2)cc1C,9.66%
5,COc1ccccc1NC(=O)CSc1sc2c(O)cc(=O)[nH]c2c1C#N,1.74%
6,Cc1cccc(NC(=O)COC(=O)c2ccccc2SCC(=O)N2CCCC2)c1,0.686%
7,COc1ccc(CC(CC(=O)O)C(=O)Nc2ccccc2)cc1 (stereo not drawn),8.11%
8,CC(OC(=O)c1ccc(-n2cnnn2)cc1)C(=O)Nc1ccccc1F (stereo not drawn),-0.0303%
9,C=CCn1c(SCC(=O)CC(=O)OCC)nc2cc(C(=O)N3CCC(C(N)=O)CC3)ccc2c1=O,13.1%
10,CCCCOc1ccccc1/C=N/NC(=O)CC#N,11.3%
11,CCCCCCN1C2=NCCCN2c2ccccc21.Cl,-73.7%
12,Cc1cccc(S(=O)(=O)c2c(C)cc(C)[nH]c2=O)c1,18.8%
13,CS(=O)(=O)N(CC(=O)NC1CCCCCC1)Cc1ccccc1,13.1%
14,Cc1c(C(=O)N2CCN(c3ccccc3F)CC2)oc2c1C(=O)CC(C)(C)C2,2.1%
15,Cc1cnc2cc(Cl)ccc2c1SCC(=O)O,9.4%
16,CC(=O)c1cc(C#N)c(SCc2ccncc2)nc1C,-0.756%
17,CN(C)N1C(N)=C(C#N)C(c2ccccc2F)C2=C1CC(C)(C)CC2=O (stereo not drawn),17.1%
18,C=CCn1c(SCC(=O)Nc2ccc(OC)cc2)nc2ccccc2c1=O,10.7%
19,COC(=O)C1=C(c2cccc(OC)c2OC)C[C@@H]2CC[C@H]1N2C(=O)NC1CCCCC1,9.78%

row,SMILES,"hERG current change (%, negative = inhibition) at 1uM"
1,Cn1c(=O)c2c(nc(CN3CCC(C(N)=O)CC3)n2Cc2c(F)cccc2Cl)n(C)c1=O,12.8%
2,COc1ccc(NC(=O)Cn2cnc3c(cnn3C(C)(C)C)c2=O)cc1OC,4.94%
3,CN(C)c1ccc(NC(=O)C(=O)C2C(=O)Nc3ccccc32)cc1 (stereo not drawn),4.32%
4,O=C1CN(C(=O)CN2CCOCC2)C(c2ccccc2)c2cc(Br)ccc2N1 (stereo not drawn),-4.77%
5,O=C(CSc1ncnc2scc(-c3ccccc3)c12)Nc1ccc(C(=O)O)cc1,13.6%
6,CCNC(=O)Oc1ccc[nH]c1=O,12.2%
7,CC1(C(=O)N2CCC(CC3CC(c4cccc(Br)c4)=NO3)(C(=O)NCC3CCCCC3)CC2)CC1 (stereo not drawn),5.87%
8,CCOc1cc(C2c3c(n[nH]c3C)C(=O)N2c2ccc(C)cc2)ccc1O (stereo not drawn),10.4%
9,C=CCNC(=S)/N=c1/ccccn1C,3.83%
10,CC(C)c1ccc(N2C(=O)NC(=O)/C(=C\c3cnc(-c4ccccc4)nc3)C2=O)cc1,9.59%
11,Cc1[nH]c(=O)[nH]c(=O)c1CSc1nnc(CCCCCNC(=O)OC(C)(C)C)o1,6.66%
12,CCOC(=O)c1c(C)[nH]c(C(=O)OCC(=O)c2c(N)n(C)c(=O)n(C)c2=O)c1C,10.4%
13,c1coc(-c2nnc3sc(-c4cccs4)nn23)c1,11.4%
14,Cc1ccnc(N/C=C(/NC(=O)c2ccccc2)C(=O)N/N=C\c2ccc(F)cc2)n1,-0.855%
15,O=C(CC1NCCNC1=O)Nc1cc(Cl)cc(Cl)c1 (stereo not drawn),12.9%
16,COc1ccc(N2CCN(c3cc(=O)n(Cc4ccc(F)cc4)c(=O)[nH]3)CC2)cc1,3.3%
17,Cc1ccc(NC(C)c2cc(Cl)ccc2O)cc1 (stereo not drawn),18.7%
18,Cc1cc(C)n(C(=O)c2cccc(S(=O)(=O)N3CCCC3)c2)n1,7.89%
19,COc1cc2c(=O)n(CCC(=O)NCC3CCCO3)c(=O)n(CC(=O)Nc3ccc(F)cc3)c2cc1OC (stereo not drawn),10.8%

row,SMILES,"hERG current change (%, negative = inhibition) at 1uM"
1,COc1cc(C(=O)NCc2cc3ccccc3n2C)cc(OC)c1OC,12.6%
2,CCCc1cc(C(=O)N2CCCN(C)CC2)cs1,15.9%
3,COc1ccc(CNC(=O)COC(=O)CC2CC3CCC2C3)cc1OC (stereo not drawn),6.66%
4,COc1ccc(C(=O)N2CCCC(C(=O)O)C2)c2ccccc12 (stereo not drawn),17.4%
5,CCCc1nc2n[nH]c(N)c2c2c1CCCC2,8.61%
6,CCOC(=O)c1c(C)c(C(=O)NCc2ccc3c(c2)OCO3)c(C)n1C,2.09%
7,Cc1cc(C)cc(OCC(=O)N/N=C/c2ccccn2)c1,5.76%
8,COc1ccc(C(=O)Oc2coc(CSc3nnc(NC(=O)c4cccs4)s3)cc2=O)cc1,12.8%
9,Cc1cc(NC(=O)CSc2nnc(-c3ccc(O)cc3)o2)no1,7.14%
10,CC(c1ccccc1F)n1cc(C(=O)Nc2ccc3nc[nH]c3c2)nn1 (stereo not drawn),9.42%
11,Cc1ccc2nc(NCc3ccccc3)c(C=NCc3cccnc3)c(=O)n2c1,12.1%
12,Cc1ccc(Nc2c(-c3ccccc3O)nc3cnccn23)cc1,8.71%
13,CCCN(C(=O)c1cc(S(=O)(=O)N2CCCCCC2)ccc1OC)C1CCS(=O)(=O)C1 (stereo not drawn),2.79%
14,Clc1ccc2nc(N3CCN(c4ccccc4)CC3)sc2c1,13.3%
15,Cc1ccc(C)c(N(C)C(=O)c2coc(=O)c3ccccc23)c1,-8.53%
16,O=C(NNC(=S)Nc1ccccc1)C1CC1,-1.62%
17,CCOc1ccc(N(Cc2nnc3n2CCCCC3)C(=O)Nc2cccc(C)c2)cc1,4.32%
18,Cc1nc2cc(-c3cccc(F)c3)nn2c(C)c1CCC(=O)N1CCC2(CC1)OCCO2,-17.6%
19,COc1ccc(N2CCC(CNC(=O)Nc3cccc(OC)c3)C2)cc1 (stereo not drawn),-2.65%
